# The other results are listed elsewhere or left out.
# Columns and labels:
# Experiment in all cases: glycan array binding signal (z-score within array); higher = stronger binding
# Conditions in all cases: glycan notation: IUPAC condensed, linker removed
# [1] = target: Neu5Ac(a2-6)Gal(b1-4)GlcNAc(b1-2)Man(a1-3)[Neu5Ac(a2-3)Gal(b1-4)GlcNAc(b1-2)Man(a1-6)]Man(b1-4)GlcNAc(b1-4)GlcNAc
# Summary of the method: (§1)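 The binding signal is a Z-score computed within each array. Data were drawn from 3228 arrays in the Consortium for Functional Glycomics database, restricted to those with a known protein sequence. Scores were averaged over arrays of the same protein sequence at different concentrations or buffers, and over linkers, and negative values can be taken as non-binding.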
# [2] = target: Neu5Ac(a2-6)Gal(b1-4)GlcNAc(b1-2)Man(a1-3)[Neu5Ac(a2-6)Gal(b1-4)GlcNAc(b1-2)Man(a1-6)]Man(b1-4)GlcNAc(b1-4)GlcNAc
# Summary of the method: as §1
# [3] = target: Neu5Ac(a2-6)Gal(b1-4)GlcNAc(b1-2)Man(a1-3)[Neu5Ac(a2-6)Gal(b1-4)GlcNAc(b1-2)Man(a1-6)]Man(b1-4)GlcNAc(b1-4)[Fuc(a1-6)]GlcNAc
# Summary of the method: as §1
# [4] = target: Neu5Ac(a2-6)Gal(b1-4)GlcNAc(b1-2)Man(a1-6)Man(b1-4)GlcNAc(b1-4)GlcNAc
# Summary of the method: as §1
# [5] = target: Neu5Ac(a2-6)Gal(b1-4)GlcNAc(b1-2)Man(a1-6)[Gal(b1-4)GlcNAc(b1-2)Man(a1-3)]Man(b1-4)GlcNAc(b1-4)GlcNAc
# Summary of the method: as §1
# [6] = target: Neu5Ac(a2-6)Gal(b1-4)GlcNAc(b1-2)Man(a1-6)[GlcNAc(b1-2)Man(a1-3)]Man(b1-4)GlcNAc(b1-4)GlcNAc
# Summary of the method: as §1
# [7] = target: Neu5Ac(a2-6)Gal(b1-4)GlcNAc(b1-2)Man(a1-6)[Man(a1-3)]Man(b1-4)GlcNAc(b1-4)GlcNAc
# Summary of the method: as §1
# [8] = target: Neu5Ac(a2-6)Gal(b1-4)GlcNAc(b1-2)[Neu5Ac(a2-6)Gal(b1-4)GlcNAc(b1-4)]Man(a1-3)[GlcNAc(b1-4)][Neu5Ac(a2-6)Gal(b1-4)GlcNAc(b1-2)[Neu5Ac(a2-6)Gal(b1-4)GlcNAc(b1-6)]Man(a1-6)]Man(b1-4)GlcNAc(b1-4)GlcNAc
# Summary of the method: as §1
# [9] = target: Neu5Ac(a2-6)Gal(b1-4)GlcNAc(b1-2)[Neu5Ac(a2-6)Gal(b1-4)GlcNAc(b1-4)]Man(a1-3)[GlcNAc(b1-4)][Neu5Ac(a2-6)Gal(b1-4)GlcNAc(b1-4)Man(a1-6)]Man(b1-4)GlcNAc(b1-4)GlcNAc
# Summary of the method: as §1
# [10] = target: Neu5Ac(a2-6)Gal(b1-4)GlcNAc(b1-2)[Neu5Ac(a2-6)Gal(b1-4)GlcNAc(b1-6)]Man(a1-6)[Neu5Ac(a2-6)Gal(b1-4)GlcNAc(b1-2)Man(a1-3)][GlcNAc(b1-4)]Man(b1-4)GlcNAc(b1-4)GlcNAc
# Summary of the method: as §1
# [11] = target: Neu5Ac(a2-6)Gal(b1-4)GlcNAc(b1-3)Gal(b1-3)GlcNAc
# Summary of the method: as §1
# [12] = target: Neu5Ac(a2-6)Gal(b1-4)GlcNAc(b1-3)Gal(b1-4)GlcNAc
# Summary of the method: as §1
# [13] = target: Neu5Ac(a2-6)Gal(b1-4)GlcNAc(b1-3)Gal(b1-4)GlcNAc(b1-2)Man(a1-3)[Neu5Ac(a2-6)Gal(b1-4)GlcNAc(b1-3)Gal(b1-4)GlcNAc(b1-2)Man(a1-6)]GalNAc
# Summary of the method: as §1
# [14] = target: Neu5Ac(a2-6)Gal(b1-4)GlcNAc(b1-3)Gal(b1-4)GlcNAc(b1-3)Gal(b1-4)GlcNAc
# Summary of the method: as §1
# [15] = target: Neu5Ac(a2-6)Gal(b1-4)GlcNAc(b1-3)Gal(b1-4)GlcNAc(b1-3)Gal(b1-4)GlcNAc(b1-2)Man(a1-3)[Neu5Ac(a2-6)Gal(b1-4)GlcNAc(b1-3)Gal(b1-4)GlcNAc(b1-3)Gal(b1-4)GlcNAc(b1-2)Man(a1-6)]GalNAc
# Summary of the method: as §1
# [16] = target: Neu5Ac(a2-6)Gal(b1-4)GlcNAc(b1-3)Gal(b1-4)GlcNAc(b1-3)GalNAc
# Summary of the method: as §1
# [17] = target: Neu5Ac(a2-6)Gal(b1-4)GlcNAc(b1-3)Gal(b1-4)GlcNAc(b1-3)[Neu5Ac(a2-6)Gal(b1-4)GlcNAc(b1-3)Gal(b1-4)GlcNAc(b1-6)]GalNAc
# Summary of the method: as §1
# [18] = target: Neu5Ac(a2-6)Gal(b1-4)GlcNAc(b1-3)Gal(b1-4)GlcNAc(b1-6)[Gal(b1-3)]GalNAc
# Summary of the method: as §1
# [19] = target: Neu5Ac(a2-6)Gal(b1-4)GlcNAc(b1-3)Gal(b1-4)[Fuc(a1-3)]GlcNAc(b1-3)Gal(b1-4)[Fuc(a1-3)]GlcNAc
# Summary of the method: as §1
# [20] = target: Neu5Ac(a2-6)Gal(b1-4)GlcNAc(b1-3)GalNAc
# Summary of the method: as §1
# [21] = target: Neu5Ac(a2-6)Gal(b1-4)GlcNAc(b1-3)[Neu5Ac(a2-6)Gal(b1-4)GlcNAc(b1-6)]GalNAc
# Summary of the method: as §1
# [22] = target: Neu5Ac(a2-6)Gal(b1-4)GlcNAc(b1-6)GalNAc
# Summary of the method: as §1
# [23] = target: Neu5Ac(a2-6)Gal(b1-4)GlcNAc(b1-6)[Gal(b1-3)GlcNAc(b1-3)]Gal(b1-4)Glc
# Summary of the method: as §1
# [24] = target: Neu5Ac(a2-6)Gal(b1-4)GlcNAc(b1-6)[Gal(b1-3)]GalNAc
# Summary of the method: as §1
# [25] = target: Neu5Ac(a2-6)Gal(b1-4)GlcNAc6S
# Summary of the method: as §1
# Neu5Ac(a2-6)GalNAc = target: Neu5Ac(a2-6)GalNAc
# Summary of the method: as §1
# [26] = target: Neu5Ac(a2-6)GalNAc(b1-4)GlcNAc
# Summary of the method: as §1
# [27] = target: Neu5Ac(a2-6)GalNAc(b1-4)GlcNAc6S
# Summary of the method: as §1
# [28] = target: Neu5Ac(a2-6)GlcNAc(b1-4)GlcNAc
# Summary of the method: as §1
# [29] = target: Neu5Ac(a2-6)GlcNAc(b1-4)GlcNAc(b1-4)GlcNAc
# Summary of the method: as §1
binder,measurement,setting,value
"Langerin K313I (Homo sapiens), Q9UJ71 (protein) STLNAQIPELKSDLEKASALNTKIRALQGSLENMSKLLKRQNDILQVVSQGWKYFKGNFYYFSLIPKTWYSAEQFCVSRNSHLTSVTSESEQEFLYKTAGGLIYWIGLTKAGMEGDWSWVDDTPFNKVQSARFWIPGEPNNAGNNEHCGNIKAPSLQAWNDAPCDITFLFICKRPYVPSEP",glycan array binding signal (z-score),[1],-0.339
same,glycan array binding signal (z-score),[2],-0.254
same,glycan array binding signal (z-score),[3],0.215
same,glycan array binding signal (z-score),[4],-0.336
same,glycan array binding signal (z-score),[5],-0.278
same,glycan array binding signal (z-score),[6],-0.35
same,glycan array binding signal (z-score),[7],-0.371
same,glycan array binding signal (z-score),[8],-0.156
same,glycan array binding signal (z-score),[9],-0.177
same,glycan array binding signal (z-score),[10],-0.274
same,glycan array binding signal (z-score),[11],-0.218
same,glycan array binding signal (z-score),[12],-0.359
same,glycan array binding signal (z-score),[13],0.012
same,glycan array binding signal (z-score),[14],-0.348
same,glycan array binding signal (z-score),[15],0.439
same,glycan array binding signal (z-score),[16],-0.349
same,glycan array binding signal (z-score),[17],-0.017
same,glycan array binding signal (z-score),[18],-0.203
same,glycan array binding signal (z-score),[19],-0.005
same,glycan array binding signal (z-score),[20],0.2
same,glycan array binding signal (z-score),[21],-0.115
same,glycan array binding signal (z-score),[22],0.252
same,glycan array binding signal (z-score),[23],-0.375
same,glycan array binding signal (z-score),[24],-0.197
same,glycan array binding signal (z-score),[25],-0.359
same,glycan array binding signal (z-score),Neu5Ac(a2-6)GalNAc,-0.385
same,glycan array binding signal (z-score),[26],-0.343
same,glycan array binding signal (z-score),[27],-0.249
same,glycan array binding signal (z-score),[28],-0.387
same,glycan array binding signal (z-score),[29],-0.381
